The list shows a part of the results. Single values are uncertain, as repeats are few or missing.
System: COLO800
Test: cell count relative to DMSO control; melanoma cells; higher = more viable cells
Conditions: library dose: low library concentration; 72 h
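Further: cell number obtained by counting DAPI-stained nuclei in high-throughput microscope images with image analysis software, screen run in 1,536-well plates.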

| Compound | cell count [%] |
| --- | --- |
| CO[C@H]1C[C@@H]2CC[C@@H](C)[C@@](O)(O2)C(=O)C(=O)N2CCCC[C@H]2C(=O)O[C@H]([C@H](C)C[C@@H]2CC[C@@H](OCCO)[C@H](OC)C2)CC(=O)[C@H](C)/C=C(\C)[C@@H](O)[C@@H](OC)C(=O)[C@H](C)C[C@H](C)/C=C/C=C/C=C/1C [everolimus] + O=c1cc(-c2cccc3c2Sc2ccccc2S3)oc(N2CCOCC2)c1 [KU55933] (first compound 0.02 µM, partner dose 1 µM) | 82.8 |
| CC(=O)O[C@@]12CO[C@@H]1C[C@H](O)[C@@]1(C)C(=O)[C@H](O)C3=C(C)[C@@H](OC(=O)[C@H](O)[C@@H](NC(=O)OC(C)(C)C)c4ccccc4)C[C@@](O)([C@@H](OC(=O)c4ccccc4)[C@H]21)C3(C)C [Docetaxel] + COc1ccc2c(c1)CCC1C2CCC2(C)C(NCCCCCCN3C(=O)C=CC3=O)CCC12 [U73122] (first compound 0.0001 µM, partner dose 0.4 µM) | 48.9 |
| CC(=O)O[C@@]12CO[C@@H]1C[C@H](O)[C@@]1(C)C(=O)[C@H](O)C3=C(C)[C@@H](OC(=O)[C@H](O)[C@@H](NC(=O)OC(C)(C)C)c4ccccc4)C[C@@](O)([C@@H](OC(=O)c4ccccc4)[C@H]21)C3(C)C [Docetaxel] + O=C(O)C(=O)Nc1sc2c(c1C(=O)O)CCNC2 [TCS401] (first compound 0.0001 µM, partner dose 1.66667 µM) | 36.9 |
| CO[C@H]1C[C@@H]2CC[C@@H](C)[C@@](O)(O2)C(=O)C(=O)N2CCCC[C@H]2C(=O)O[C@H]([C@H](C)C[C@@H]2CC[C@@H](OCCO)[C@H](OC)C2)CC(=O)[C@H](C)/C=C(\C)[C@@H](O)[C@@H](OC)C(=O)[C@H](C)C[C@H](C)/C=C/C=C/C=C/1C [everolimus] + c1cc(-c2cnn3cc(-c4ccc(OCCN5CCCCC5)cc4)cnc23)ccn1 [Dorsomorphin] (first compound 0.02 µM, partner dose 0.4 µM) | 57.5 |
| CC(=O)c1c(C)c2cnc(Nc3ccc(N4CCNCC4)cn3)nc2n(C2CCCC2)c1=O [palbociclib] + Oc1cc(-c2nc(-c3ccccc3)[nH]c2-c2ccncc2)ccc1Cl [L779450] (first compound 0.04 µM, partner dose 0.2 µM) | 45.6 |
| Nc1ncn([C@H]2C[C@H](O)[C@@H](CO)O2)c(=O)n1 [decitabine] + O=C(Nc1ccccc1)c1cc([N+](=O)[O-])ccc1Cl [GW9662] (first compound 0.1 µM, partner dose 2 µM) | 96.6 |
| Nc1nc(F)nc2c1ncn2[C@@H]1O[C@H](CO)[C@@H](O)[C@@H]1O [fludarabine] + c1cc(-c2cnn3cc(-c4ccc(OCCN5CCCCC5)cc4)cnc23)ccn1 [Dorsomorphin] (first compound 0.2 µM, partner dose 0.4 µM) | 128 |
| CO[C@H]1C[C@@H]2CC[C@@H](C)[C@@](O)(O2)C(=O)C(=O)N2CCCC[C@H]2C(=O)O[C@H]([C@H](C)C[C@@H]2CC[C@@H](OCCO)[C@H](OC)C2)CC(=O)[C@H](C)/C=C(\C)[C@@H](O)[C@@H](OC)C(=O)[C@H](C)C[C@H](C)/C=C/C=C/C=C/1C [everolimus] + O=C(Nc1ccccc1)c1cc([N+](=O)[O-])ccc1Cl [GW9662] (first compound 0.02 µM, partner dose 2 µM) | 60 |
| CC(=O)c1c(C)c2cnc(Nc3ccc(N4CCNCC4)cn3)nc2n(C2CCCC2)c1=O [palbociclib] + COC(=O)c1sccc1S(=O)(=O)Nc1ccc(Nc2ccccc2)cc1OC [GSK0660] (first compound 0.04 µM, partner dose 1 µM) | 73 |
| CO[C@H]1C[C@@H]2CC[C@@H](C)[C@@](O)(O2)C(=O)C(=O)N2CCCC[C@H]2C(=O)O[C@H]([C@H](C)C[C@@H]2CC[C@@H](OCCO)[C@H](OC)C2)CC(=O)[C@H](C)/C=C(\C)[C@@H](O)[C@@H](OC)C(=O)[C@H](C)C[C@H](C)/C=C/C=C/C=C/1C [everolimus] + Cn1cc(/C=C2\C(=O)Nc3cccnc32)c2ccccc21 [GW441756] (first compound 0.02 µM, partner dose 0.4 µM) | 87.9 |

— the supplement of paper PMC4604168 (melanoma cell lines)
